The supplement of paper PMC12632987
Whole data set: some 2,300 sequences, median “median log2 fold change of GCK-ALFA target abundance (FLAG IP / Myc IP barcode read proportion)” near 0.095, cut for the lowest 2% near -0.47. The list shows a part of the results.

B1: LC3A_free_39_2202 (protein)
chain: SSEREREYEERLLELAAKAGEEALEEAKRLLELVKGNPELVETVLELVERAVKEGADVLELLRRLKELVEELLKKGKSEEEIIEELKEEGRVIIELIPIE
B2: LC3A_free_39_2224 (protein)
chain: SQEEIEKLIKEVAKESGVDLEELRAKIEEIKKVAGLSDEQILEIVKGILEAVKAGADAKEIVDESLALAKELKAQGKSPEEIKEALLELIKDYRNLVPLD
B3: LC3A_28_835 (protein)
chain: SHAEEQIKKAKEQLEKAKETKEDVLVEITITSSMTPEEAKEIMDAVEEEISKLDKSIKVSILVLGEEELSQEVIDVIADKGEEIEKKFPNVNFIIALPEP
B4: LC3A_17_589 (protein)
chain: NEKIKKELERLLKELEELIKKAKELGLPEAEKVEKLLEEAKKALEEGDLKKAAEILKEAADLLADALSEVEEEKGSEASVLEMEANGLALEAEGILLKLE
B5: LC3A_28_1113 (protein)
chain: SAIDKNIEAALAEAKEAAARGEPVVVTIKVKATDSQEDIDKVIKALYEIAEILKDVKDAAIIIDLDGKIPQEHLNKLADAAEEIEKKYPNITVIIALDEE
B6: LC3A_3_1514 (protein)
chain: MEEIKKETLELLKKAGASEEVLELAEEALNLLIEKGYEEAAKELAEEMKKLANLPDELLLEFLKDVIELVKTSNLSEEELIKEIKELAKVYENESEIEEL
B7: LC3A_147_449 (protein)
chain: MLYEITVDALFKNDPALAEEVAEQLKAIAEKHGGEVEVEFEEEQVSPTTTEYFLNVTITFEDKAKAQAAETEIAALLDETAAKHPDKFLGAILSFEEVEP
B8: LC3A_28_793 (protein)
chain: SEIEATLAAARAEAEEARARGEEAVIEVRVPKGTTPEDAERIVEGLREIAEAAADLPRLSFVIDLERGVSQEVIDILARGGEEIEERYPNVSVVIALEEE
B9: LC3A_102_161 (protein)
chain: KVEEEIKKIIEEEVKKMKEFLEKEKSLTEEEKEEILKIVKEALEALAEILLSEAQHGFEDIEALDKLLKAKEELKKYPEKVKKKAEEILEEAKKKIEELL
B10: LC3A_3_1487 (protein)
chain: MEELLERAREVLEKRGASEEQIAAVLADLAAVLARGYERTVEEFIRLLEEYPDLSPEKIVAAAGTIRDVVEEEDLTEEEAVEKTREIVEDVHEIEELEEE
B11: LC3A_free_46_2348 (protein)
chain: YKAEILIDLLAKDKETLEKAVKEIVEEAKKIAEKYNLELEIKVKIEKLEDGSYYAEIEITLKGETEEDLQKAVNELINKIEEIAKKYGVAAIISYEIIKE
B12: LC3A_3_1529 (protein)
chain: FEAIRAEVLALAKEAGADPETIATADEALDLLEARGYENAAKTFLEEVKELAGISPETLAEFIRDVLELLLTEDLDEETLSKRIKEIARTAKNAAEIEEL
B13: LC3A_28_691 (protein)
chain: SAIDETIARIRAQAEAALAAGEEALLEVTVPATATQEDIDRLIATIREAVERLAGVGKVYIVVDVESGVAQENITRLADALDELEAEYPNVTVVIALDED
B14: LC3A_28_1263 (protein)
chain: NELEKSLEEALKKAKEAVEKGEEALIEIKIPAGVTEEEVEKIIETLEEIAELTKSLPSVTIILDVERGVSQEHIDKLADKAEELEKKYPNLTIIIALEEE
B15: LC3A_28_717 (protein)
chain: SMLEESIEKALKEAKEAAEAGEEVVIEIYIPGDATEEDIEKVIKTLEEIAEILKDLKSQSIVVDVDGKVKQEHIDKIADKAEEIEEKYPNVTVIIALDEN
B16: LC3A_132_256 (protein)
chain: SEELYERFLEEAKELIDKIVDALKAGKDPSPYIKELDELAEEAAEKLSLEELERLVEEAEEYAEERFAERLDPNDPEARRALDIVEMILDSALIEAELRA
B17: LC3A_132_264 (protein)
chain: SAELLEKALAELKAIADALVAALAAGEDPWPHVRRLEETFEEYAKKLSLEETEKLAAEVLAHLEALAAARLDPNDPEARRVLDIVEMLFEGVLIEKELEE
B18: LC3A_28_864 (protein)
chain: SKTKESADAALEEAKKAKENGESTVITIKIYGKASPEEVDYVIEALKEIAEILKDIPNQGIIISLEEPLDPEQLKKLADAADEVEKKYPNVTVIIALPEE
B19: LC3A_3_1894 (protein)
chain: LEEELKRTEKLLKEAGASEEVLKKFREAFEKLLKRGYEEAAKTLIEETEKLKDASDEILLWFLEEVLEKIEKEDLNEEELIKKIKEIASTALNESEIIEL

molecular target: MAP1LC3A, Q9H492; assay: median log2 fold change of GCK-ALFA target abundance (FLAG IP / Myc IP barcode read proportion) (log2 ratio); each designed protein is fused to an ALFA-tag nanobody in HEK293 cells to bring the named protein to FLAG-tagged glucokinase (GCK); Myc marks an untargeted standard; higher = target protein stabilised (more abundant); conditions: target protein: 3xFLAG-MCP-GCK-ALFA reporter; HEK293 landing pad (RPLP)
Outline: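 Sequencing of reverse-transcribed, amplified circular RNA barcodes from anti-FLAG and anti-Myc immunoprecipitates provided the readout for an ALFA-nanobody-fused binder library recombined into HEK293 landing-pad cells. Those cells were induced with 2 μg mL^−1 doxycycline, transfected with a plasmid expressing a FLAG-tagged target and a Myc-tagged standard, and lysed after 48 h. Target abundance is the per-binder median log2 ratio of FLAG to Myc barcode read proportions. Only barcodes at a proportion of ≥10^−7 in both replicates and binders with ≥3 barcodes per replicate were kept, with a 10^−6 pseudocount added before the two replicates were pooled.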

Binder | median log2 fold change
B1 | 0.0985
B2 | 0.303
B3 | 0.137
B4 | 0.375
B5 | 0.157
B6 | 0.233
B7 | -0.603
B8 | 0.221
B9 | 0.458
B10 | 0.0753
B11 | -0.204
B12 | 0.174
B13 | -0.0472
B14 | 0.201
B15 | 0.0803
B16 | -0.217
B17 | -0.401
B18 | 0.188
B19 | 0.471
